± gives the standard deviation. In all, about 3,000 sequences were measured (“pre-steady-state target cleavage rate”: median about 0.0079, highest 2% from about 0.2 on). The entries are a selection whose mix differs from that of the whole data set.
What follows are sequences tested on MILI (PIWIL2) piRISC loaded with piRNA #2 (26 nt) (assay: pre-steady-state target cleavage rate (min^-1); MIWI and MILI are mouse PIWI proteins and EfPiwi is from a freshwater sponge; tags in brackets are library labels; higher = faster piRNA-guided slicing of the target). Conditions: guide: piRNA #2 5'p-UUAGGUAACCCAGUAGAUCCAGAGGA; auxiliary factor: 500 nM mouse GTSF1.
Summary of the method: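 The method was Cleave-'n-Seq, in which uncleaved targets from a transcribed, DNA-blocked target RNA library were sequenced after exposure to active affinity-purified piRISC carrying one synthetic guide, with or without GTSF1 partner protein. Reactions contained 0.1 nM library, 1 nM piRISC and, where present, 500 nM GTSF1 in HEPES–potassium acetate buffer at 33 °C for 0–8 or 0–960 min. Reads were normalised to depth and to weakly complementary targets, three trials were pooled, and k3 was capped at 0.0001 min^-1. The pre-steady-state cleavage rate came from a burst-and-steady-state fit.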
In the case of CUUAAGGUGUGGAUGUACUGGGUUACCUAA, the “pre-steady-state target cleavage rate” value is reported as 0.031 ± 0.021. In the case of CUUAAGGAGAGGAUCUACUGGGUUACCAA, the “pre-steady-state target cleavage rate” value is reported as 0.00467 ± 0.0033. In the case of CUUAACCUCUGGAUCUACUGGGUUACCAA, the “pre-steady-state target cleavage rate” value is reported as 0.165 ± 0.04. CUUAAGGACUGGAUCUAGUGGGUUUCCUAA was tested, and the “pre-steady-state target cleavage rate” value was 0.0193 ± 0.0062. CUUAAGGUCUGGAUCUACUGGGUUACCUA was tested, and the “pre-steady-state target cleavage rate” value was 0.11 ± 0.018. In the case of CUUAAGGUCUGCAUCUUCUGGGUUACCUAA, the “pre-steady-state target cleavage rate” value is reported as 0.0399 ± 0.012. CUUAAGGUCUGGAUCUACUGGGUUAACCUAA was tested, and the “pre-steady-state target cleavage rate” value was 0.0549 ± 0.013. For CUUAAGGACACGAUCUACUGGGUUACCUAA, the “pre-steady-state target cleavage rate” value was 0.0133 ± 0.0059. CUUAACCACUGGAUCUACAGGGUUACCUAA was tested, and the “pre-steady-state target cleavage rate” value was 0.0934 ± 0.012. CUUAAGGAGAGGAUCUACUGGGUUACCAUAA was tested, and the “pre-steady-state target cleavage rate” value was 0.00451 ± 0.0042. CUUAACCUCUGGAUCUACUGGGUAACCUUA was tested, and the “pre-steady-state target cleavage rate” value was 0.114 ± 0.029. With CUUAAGGAGUGGAUCUACUAGGUUACCUAA the “pre-steady-state target cleavage rate” value was 0.0262 ± 0.009. For CUUAAGGUCAGGAUGUACUGGGUUACCUAA, the “pre-steady-state target cleavage rate” value was 0.0187 ± 0.013. For CUUAUCCUCUGGAUCAUGUGGGUUACCUAA, the “pre-steady-state target cleavage rate” value was 0.00734 ± 0.0034. In the case of CUUAUCCUCUGGAACAACUGGGUUACCUAA, the “pre-steady-state target cleavage rate” value is reported as 0.0803 ± 0.021. With CUUAAGGUCUGGAUCAAGUGGGUUACCUAA the “pre-steady-state target cleavage rate” value was 0.0291 ± 0.0075. CUUAAGGACUGGAACUACAGGGUUACCUAA was tested, and the “pre-steady-state target cleavage rate” value was 0.0132 ± 0.01. For “CUUAAGGAGUGGAUCUACUGGGUUACCUAA [g2:g21:cont:t1A]”, the “pre-steady-state target cleavage rate” value was 0.0574 ± 0.015. With CUUAAGAUCUGGAUCUACUGGGUUACCUAA the “pre-steady-state target cleavage rate” value was 0.0959 ± 0.015. In the case of CUUAAGCUCUUGGAUCUACUGGGUUACCUAA, the “pre-steady-state target cleavage rate” value is reported as 0.143 ± 0.045. With CUUAACCUCUGGAUCUAAUGGGUUACCUAA the “pre-steady-state target cleavage rate” value was 0.0565 ± 0.0097. With CUUAAGGAGACCUAGAUGUUGGGUUACCUAA the “pre-steady-state target cleavage rate” value was under 0.0001. In the case of CUUAAGGAGUGGAUCUACGGGGUUACCUAA, the “pre-steady-state target cleavage rate” value is reported as 0.0548 ± 0.01. For CUUAAGGUCUGGAUCUACUGCGUUACCAAA, the “pre-steady-state target cleavage rate” value was 0.00469 ± 0.0031. In the case of CUUAACCUCUCGAUCUAGUGGGUUACCUAA, the “pre-steady-state target cleavage rate” value is reported as 0.132 ± 0.023. In the case of CUUAUCCUCUGGAUCAUCUGGGUUACCUAA, the “pre-steady-state target cleavage rate” value is reported as 0.111 ± 0.036. CUUAAGCUCUGCAUCUACAGGGUUACCUAA was tested, and the “pre-steady-state target cleavage rate” value was 0.0554 ± 0.0093. For CUUAAGGACUGGAUCUUCUGGGUUACCUAA, the “pre-steady-state target cleavage rate” value was 0.0255 ± 0.016. CUUAAGCUUCUGGAUCUACUGGGUUACCUAA was tested, and the “pre-steady-state target cleavage rate” value was 0.0747 ± 0.019. “CUUAAGGACUGGAUCUACUGGGUUACCUAA [g2:g22:cont:t1A]” was tested, and the “pre-steady-state target cleavage rate” value was 0.0428 ± 0.02. In the case of CUUAAGGACUGGACUCUACUGGGUUACCUAA, the “pre-steady-state target cleavage rate” value is reported as 0.00833 ± 0.0081. In the case of CUUAUCCUCUGGAUCUACGGGGUUACCUAA, the “pre-steady-state target cleavage rate” value is reported as 0.088 ± 0.012. In the case of CUUAUCCUCUGGAUCUACUGGGUUAGGUAA, the “pre-steady-state target cleavage rate” value is reported as 0.00735 ± 0.004. In the case of CUUAUCCUCUGGAUCAACUGCGUUACCUAA, the “pre-steady-state target cleavage rate” value is reported as 0.00726 ± 0.0033. For CUUAAGGAGUGGAUCUACUGGGUUGCCUAA, the “pre-steady-state target cleavage rate” value was 0.0244 ± 0.011. In the case of CUUAAGGUCUGGAUGCUACUGGGUUACCUAA, the “pre-steady-state target cleavage rate” value is reported as 0.0643 ± 0.019. For CUUAAGGAGAGGAUCUACUGGGUUACCAAA, the “pre-steady-state target cleavage rate” value was 0.00579 ± 0.004. With CUUAACCUCUGGAUCUACUGCGUUACCUAA the “pre-steady-state target cleavage rate” value was 0.018 ± 0.0064. For CUUAAGCUCUGGAUCUUCUGGGAUACCUAA, the “pre-steady-state target cleavage rate” value was 0.0206 ± 0.0087. In the case of CUUAAGCUCUCGAUCUACUGGGUAACCUAA, the “pre-steady-state target cleavage rate” value is reported as 0.04 ± 0.011. For CUUAUCCUCUCGAUCUACUGCGUUACCUAA, the “pre-steady-state target cleavage rate” value was 0.0252 ± 0.0058. With CUUAUCCUCUGGAUCUUACUGGGUUACCUAA the “pre-steady-state target cleavage rate” value was 0.00479 ± 0.004. For CUUAAGGACUGGAUUCUACUGGGUUACCUAA, the “pre-steady-state target cleavage rate” value was 0.0159 ± 0.011. CUUAAGGACAGGAUCUACUGGGUUACCUAA was tested, and the “pre-steady-state target cleavage rate” value was 0.0192 ± 0.013. For CUUAAGGAGUGGAUCUACAGGGUUACCUAA, the “pre-steady-state target cleavage rate” value was 0.0767 ± 0.012. In the case of CUUAUGCUCUGGAUCUACUGGGUUAGCUAA, the “pre-steady-state target cleavage rate” value is reported as 0.109 ± 0.019. CUUAACCUCUGCAUCUAGUGGGUUACCUAA was tested, and the “pre-steady-state target cleavage rate” value was 0.0558 ± 0.015. With CUUAACCUCUGGAUCUAGAGGGUUACCUAA the “pre-steady-state target cleavage rate” value was 0.0444 ± 0.013. With CUUAUCCUCUGGAUCUACAGGGUUAGCUAA the “pre-steady-state target cleavage rate” value was 0.0334 ± 0.0089. “CUUAAGGUCUGGAUCUACUGGGUUACCUAA [g2:g23:cont:t1A]” was tested, and the “pre-steady-state target cleavage rate” value was 0.0846 ± 0.015. CUUAAGGAGUGGGUCUACUGGGUUACCUAA was tested, and the “pre-steady-state target cleavage rate” value was 0.0176 ± 0.0075. In the case of CUUAACCACUGGAUCUACUGCGUUACCUAA, the “pre-steady-state target cleavage rate” value is reported as 0.0115 ± 0.0043. For CUUAACCUCUGGAUCUACAGGGUUACGUAA, the “pre-steady-state target cleavage rate” value was 0.0359 ± 0.012. For CUUAAGGACUGGAUCAACUGGGUUACCUUA, the “pre-steady-state target cleavage rate” value was 0.0141 ± 0.0089. CUUAAGGUCGUGGAUCUACUGGGUUACCUAA was tested, and the “pre-steady-state target cleavage rate” value was 0.0324 ± 0.018. CUUAAGGAGAGCAUCUACUGCGUUACCUAA was tested, and the “pre-steady-state target cleavage rate” value was 0.00313 ± 0.0027. With CUUAAGCUCUGGAUCAAGUGGGUUACCUAA the “pre-steady-state target cleavage rate” value was 0.0155 ± 0.0044. With CUUAAGGACUGGAUCUACUGGGUUAACCUAA the “pre-steady-state target cleavage rate” value was 0.013 ± 0.012. In the case of CUUAACCUCUGGAUCUACUGGGUUACCUUAA, the “pre-steady-state target cleavage rate” value is reported as 0.0882 ± 0.022. With CUUAAGCUCUGGAUCUACUGAGUUACCUAA the “pre-steady-state target cleavage rate” value was 0.0312 ± 0.0091. For CUUAAGGACUGGAUGUACUGGGUUAGCUAA, the “pre-steady-state target cleavage rate” value was 0.0136 ± 0.011. For CUUAUCGUCUGGAUCUACUGGGUUACCUUA, the “pre-steady-state target cleavage rate” value was 0.0588 ± 0.013. With CUUAUCGUCUGGAUCUACAGGGUUACCUAA the “pre-steady-state target cleavage rate” value was 0.0634 ± 0.0087.

— the supplement of paper PMC10338343
